From the supplement of paper PMC10126150
Values marked as one replicate rest on one cluster of the flow cell; about a third of the high ones do not repeat.

System: ATP
Assay: switch fluorescence ratio, 500 uM ATP over buffer (Cy3 cluster intensity, sum of 5 cycles each) (fold (ratio)); higher = stronger signal-on switching upon ATP binding; sequences stand for … in TCGTCGGCAGCGTCAGATGTGTATAAGAGACAGTTTTTTTTTTTTTTTTTTTTTTTTT…TC
Settings: aptamer strand: ATP DNA aptamer (quencher-CACCTGGGGGAGTATTGCGGAGGAAGG + anchor), 100 nM annealed; ATP concentration: 500 uM; one replicate
Summary of the method: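 The quencher-labelled ATP aptamer, at 100 nM, was annealed to Cy3-labelled switching-strand clusters on a modified Illumina MiSeq flow-cell. The clusters were imaged in selection buffer, then after 15 min with 500 uM ATP at 22 °C, and this buffer/ATP cycle ran five times with NaOH stripping and re-annealing between runs. Per-cluster fluorescence ratios, summed target-cycle over summed buffer-cycle Cy3 intensity, were averaged per switch-domain sequence. Clusters outside 100-1000 RFU were excluded.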
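Also: ATP exposure 15 min at 22 °C before imaging.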

Sequence | switch fluorescence ratio
ATGATTCTG | 1.02
ACGGAACAG | 1.16
TGTCAATATT | 1.03
GTGCTAGCGT | 0.974
CACGTATAAG | 1
GGTTCGGGCG | 1.02
ACCTTAGCGT | 1.11
GTTCGTAAGA | 0.994
CTGGATTACT | 1.15
TGGGTGCGA | 1.13
GGAAGCTTTA | 0.982
GAAAGGTGTG | 0.991
ATTTGTTTCC | 1.04
TTTAGCTTGG | 1.05
GTTGGACATG | 0.991
AGAGTTTTCA | 0.994
TGTCTTTAGG | 0.974
ATGTCAGAGC | 1.01
GGGGAAAGAT | 0.921
GAGGGGAGTT | 0.998
TGCAGTAATG | 0.997
TATTTTAGAT | 0.979
AAACCATTTC | 1.3
GAGTTCTAAT | 0.985
TATGTCGCTC | 1.05
GTTTGCCGAT | 0.995

Sequence | switch fluorescence ratio
GCGAATGATC | 1.03
TAACGATACG | 1.2
TACAGTCGG | 0.995
GACAAGGGGC | 1.04
GTAGAGCTCG | 0.999
TAAGGTTGAT | 0.98
GTTGTCATGG | 0.972
GGGTTCTAAG | 1.01
TACTATTTT | 0.968
GGTGATGCTA | 1.01
CTGTTAATCG | 0.948
CATCAAGGGG | 1.1
ACGGGTAGTG | 0.967
TCTATCCGC | 2.11
AGCGTTTTTC | 1.02
TTCGAGGCGG | 1.05
ATTGTACTGT | 1.04
TAGGCCTGT | 0.95
CCCCGATATA | 1.6
TTGTGAAGAT | 0.99
ACGTTAGCGG | 1.03
ACGTTTTTAC | 1.17
GAAAGCATCC | 1.56
CCTGATTTTA | 0.979
TGCTCTGAT | 1.01
GACTAGCCTA | 1

Sequence | switch fluorescence ratio
GCAATCGTTA | 1.11
CTTTTAGGG | 0.988
TATAGTTACC | 1.11
CTCGGTAAGA | 1.05
TCTCGGTTTT | 1.07
GGCTTCGACA | 1.02
GTAAACCTGT | 1.05
TTGAAAGCAG | 1.71
TTTGCGATGC | 2.24
TATGGAGTG | 1.01
TACTACCTTG | 1.04
AGCGTGGTGT | 1.02
CTGGTTATGG | 0.98
CGCACACC | 2.83
TGCGTTTTGC | 1.03
TGTGCAATGG | 0.942
TAACACGACA | 1.19
GCCAGGAGGT | 1.07
CGCGCGAGCA | 1.04
GTCTGGCCGA | 1.01
GAGTACCGGG | 1.01
CGATTAAACA | 0.976
TGTCAAAAGC | 0.969
ATGGCCACTG | 1.03
TTGCTGGTGG | 1.1
TCGGCGTTTG | 0.993

Sequence | switch fluorescence ratio
CTATATTTTG | 1.01
TGACGGGTCG | 1
GGCAATTAGT | 1.02
GAACGGAATC | 3.97
TTGTGGAAGA | 1.01
TGAGCGGGTC | 0.995
CGTTGTCAGT | 0.986
CCACGCCCAG | 1.21
TTAGATAAA | 0.975
TATGATATAA | 1.01
GCTACGGTGG | 1.02
TGGAAGTTTG | 1
GCACGCCGTT | 0.99
GTATGGGAGG | 0.994
ACGGCGCCCC | 1.03
GAACAAAACG | 0.991
TAGGACCGAA | 0.994
GCGTTAGTCG | 0.979
TGACGGACCT | 1.27
GTAGAAATGC | 5.12
AGAAGGAAAC | 1.03
GAAAAACCGT | 0.96
GATGTGTCAG | 0.973
TGCATCGGAA | 1.01
CAATCGTCAT | 1
GAGACTGAAT | 0.985

Sequence | switch fluorescence ratio
ACCAGTCCTT | 1.01
ACATTGTCTT | 0.996
AAATTCCGGT | 1.03
CACGCCTCAG | 1.02
TTCACCGAC | 1.53
TGGTTTGAC | 0.992
TATTTATGGC | 0.981
CCGGAATGGG | 1.32
TAATTGTCGT | 1.03
ATCTTGACCT | 1.3
ATTAATGAGC | 1
TCTTTTTCAG | 1.18
TCACTGGGGT | 1.05
TAGGAGCACA | 1.17
TCCATCGCGG | 2.03
GGGGAAAGG | 0.989
TGCCACATCA | 0.957
ATAGGGCTTC | 0.953
TTTCACCGGA | 1.05
CGTGACAGAC | 1.09
CATGAGCAAG | 1.68
TAGACACGGA | 1.04
TGTCACCGGA | 0.998
CGGGCTTCGG | 1.02
ACGAGCGGTA | 1.08
CCGTGGCCAT | 1.1

Sequence | switch fluorescence ratio
GACAACCACG | 1.19
CAGTCTGTA | 0.998
TCGGCGCGTC | 0.974
GCAACCACCT | 1.18
TCATTGCAGA | 1.01
TTACAGAGGG | 1.04
GATCGATCGC | 1.1
GCGAGTATAA | 0.994
CGACTAATTA | 0.955
GGAGTCAATT | 1.48
TTGCCAAGTT | 0.988
CCGTGGTTCC | 1.17
ACAGCAGAGG | 1.04
ATATGTATTG | 1
AATGTCCAGT | 1.02
GCTAGGTCTG | 0.972
TTCTCATTAA | 0.994
AGGTGCAGGG | 0.956
TTTTGCCTAC | 1
CCCAAAAGGA | 1.26
ATACCTAGCG | 1.04
ATTTCTCGTT | 0.978
TTGGACCAC | 1.01
ATCCAGTCAT | 1.02
TGTGTTCGTC | 1
CAATTACATT | 1.01

Sequence | switch fluorescence ratio
GCATCATGGA | 1.04
CCTACATACA | 1.45
AGCGTCGATG | 1.04
TCGTAACA | 0.948
GCTTCCACAG | 2.07
TTTCCGAGAT | 1.02
CGTAGCTGAG | 1.08
CCCGGTGACC | 1.27
GCTAGAAGAT | 0.977
GTTCCTTTAT | 0.99
GTTGTCGCGA | 1.04
TACAATCTTC | 1.05
TTTGCGCATT | 1.05
AGGCAACAGA | 1.04
ATGGAATACC | 1.07
GCCGTGATGA | 1.03
GTTTGACATC | 1.04
GAGCCCACC | 1.02
TTATTATCTA | 1.02
CATTTCCAAA | 1.04
GCGCGCGCCC | 0.958
TACAGGGGT | 1.13
AACGCAGGCT | 0.995
TTCCTTTGGT | 0.989
TATATGACAG | 1.01
CAAAACGGAT | 1.03

Sequence | switch fluorescence ratio
ATTCCGAAGG | 1.02
TTTTTGTAC | 1.06
CGTTCTTCCG | 1.23
TTTGTCTTGT | 0.975
CTGTAATTGC | 1.52
TGCCACAGGA | 1.05
GAGTGTCTCA | 0.996
GCCGTTTCA | 1.03
TCCGGTCATG | 1.04
GCGTGTATAG | 1.01
GTAATATGTA | 1.02
ACTTTGGCCA | 1.06
TAGCATCTAG | 0.969
CTTTACCAAG | 1.04
TATTATAG | 1
AAACCGAAAA | 2.52
TATTGCGTTA | 1.04
TGCAAATGAC | 1.14
TTATCATCAT | 1.03
